Reference: the supplement of paper PMC12217912
The list shows a part of the results. Sequences were assembled here from the parent chain. Values near 0.05 are background.

B1: TEV protease; numbered along this chain (parent)
chain: MGESLFKGPRDYNPISSSICHLTNESDGHTTSLYGIGFGPFIITNKHLFRRNNGTLVVQSLHGVFKVKDTTTLQQHLVDGRDMIIIRMPKDFPPFPQKLKFREPQREERICLVTTNFQTKSMSSMVSDTSCTFPSGDGIFWKHWIQTKDGQCGSPLVSTRDGFIVGIHSASNFTNTNNYFTSVPKNFMELLTNQEAQQWVSGWRLNADSVLWGGHKVFMVKPEEPFQPVKEATQL

Variants of: B1
Assay: raw area under fraction-flipped curve 0-4 h after induction (AUC4h, not background-subtracted), DNA-recorder readout of cleavage of the substrate (dimensionless); higher = more cleavage of the substrate by the protease variant
Conditions: temperature: 34 °C; time window: 0-4 h after rhamnose induction
Method: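 In vivo DNA recorder in E. coli TOP10(DE3) ΔrhaA at 34 °C. Each TEVp single-site mutant (parent TEVp 0) is paired with a single-site variant of the 7-mer TEVs (canonical ENLYFQ|S). The substrate sits between flexible linkers in a Bxb1-sfGFP-TEVs-SsrA fusion, so cleavage stabilises Bxb1 and speeds flipping of a recombination array, read by NGS. The value is the raw area under the fraction-flipped curve over 0-4 h after rhamnose induction (AUC4h), with ≥20 reads per time point. It is not background-subtracted; inactive controls average about 0.047.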
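Note: Bxb1 expression induced with 0.2% (w/v) L-rhamnose at OD600 near 0.5, cultures sampled hourly, flipped fraction per protease–substrate barcode pair counted by paired-end Illumina sequencing.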

| Variant | area with substrate ENLAFQS | area with substrate ENLDFQS | area with substrate ENLEFQS | area with substrate ENLFFQS | area with substrate ENLGFQS | area with substrate ENLIFQS | area with substrate ENLKFQS | area with substrate ENLLFQS | area with substrate ENLPFQS | area with substrate ENLQFQS | area with substrate ENLRFQS | area with substrate ENLSFQS | area with substrate ENLWFQS | area with substrate ENLVFQS | area with substrate ENLCFQS | area with substrate ENLHFQS | area with substrate ENLNFQS | area with substrate ENLMFQS | area with substrate ENLTFQS |
| --- | --- | --- | --- | --- | --- | --- | --- | --- | --- | --- | --- | --- | --- | --- | --- | --- | --- | --- | --- |
| F180K | 0.0607 | 0.0603 | 0.0569 | 0.0526 | 0.086 | 0.0609 | 0.0464 | 0.0515 | 0.0613 | 0.0613 | 0.0444 | 0.0705 | 0.0567 |  |  |  |  |  |  |
| T159S | 0.0522 | 0.0585 |  | 0.0927 | 0.0631 |  | 0.0604 | 0.0428 |  |  |  |  | 0.0574 |  |  |  |  |  |  |
| T159D | 0.0615 | 0.0603 |  | 0.0629 |  |  |  |  | 0.0595 |  |  |  |  |  |  |  |  |  |  |
| T159N | 0.0614 | 0.107 | 0.0603 |  |  |  | 0.0764 |  |  |  | 0.0599 | 0.0769 |  |  |  |  |  |  |  |
| Y179C | 0.0768 | 0.0608 | 0.0606 | 0.0578 |  | 0.0581 | 0.0705 | 0.0806 | 0.0873 |  | 0.0538 | 0.0566 | 0.0562 | 0.0904 |  |  |  |  |  |
| Y179F | 0.0675 | 0.0595 |  | 0.103 |  | 0.0715 | 0.0717 |  | 0.0328 |  |  | 0.0725 | 0.0679 | 0.0814 | 0.0584 | 0.0698 | 0.0499 |  |  |
| S169P | 0.0708 | 0.0513 | 0.0587 | 0.0649 | 0.0548 | 0.0681 | 0.0659 |  | 0.0612 |  |  | 0.0693 | 0.036 | 0.0754 |  | 0.0626 | 0.0577 |  |  |
| S169E | 0.0501 |  | 0.0584 | 0.0677 | 0.0336 | 0.0506 | 0.0615 |  |  | 0.0412 | 0.0662 | 0.107 | 0.0389 |  |  | 0.058 | 0.0736 | 0.0622 |  |
| V183Q | 0.0331 | 0.0448 |  | 0.0508 |  |  |  | 0.0651 | 0.0444 | 0.0477 | 0.0638 | 0.0575 | 0.0606 |  | 0.0535 | 0.047 | 0.0488 | 0.0617 |  |
| V157Q | 0.0701 |  | 0.0585 | 0.0771 |  | 0.0829 | 0.0668 | 0.0632 | 0.0498 | 0.0658 | 0.0536 | 0.0615 | 0.0667 | 0.068 |  |  | 0.061 |  |  |
| N186D | 0.0627 |  | 0.0601 | 0.0936 |  |  | 0.0854 |  | 0.053 | 0.0366 |  |  |  | 0.0865 | 0.0756 | 0.0728 | 0.0657 |  |  |
| S158F | 0.0377 | 0.0518 | 0.0505 | 0.055 |  | 0.0672 | 0.0646 |  | 0.0415 |  | 0.0587 |  | 0.0524 |  |  | 0.0533 | 0.0622 |  |  |
| S158P | 0.0326 | 0.0552 | 0.0436 | 0.0673 | 0.0514 | 0.0531 | 0.0589 |  |  |  |  | 0.0555 | 0.0415 | 0.0423 | 0.0659 |  | 0.0519 |  |  |
| T174N | 0.0637 | 0.0748 |  | 0.0885 | 0.0567 |  | 0.0459 | 0.0823 |  |  | 0.0691 | 0.0751 | 0.0895 | 0.089 | 0.0072 | 0.0738 | 0.0771 |  |  |
| N177D | 0.0686 | 0.0486 | 0.0814 | 0.0877 |  | 0.0853 | 0.0826 | 0.0698 | 0.0671 |  |  | 0.0548 |  |  | 0.0714 | 0.0571 | 0.0597 |  |  |
| A170H | 0.0652 | 0.0579 |  | 0.054 |  |  |  |  |  | 0.061 | 0.0757 |  |  |  | 0.0434 | 0.0566 | 0.0538 | 0.061 |  |

| Variant | area with substrate ENLAFQS | area with substrate ENLDFQS | area with substrate ENLEFQS | area with substrate ENLFFQS | area with substrate ENLGFQS | area with substrate ENLIFQS | area with substrate ENLKFQS | area with substrate ENLLFQS | area with substrate ENLPFQS | area with substrate ENLQFQS | area with substrate ENLRFQS | area with substrate ENLSFQS | area with substrate ENLWFQS | area with substrate ENLVFQS | area with substrate ENLCFQS | area with substrate ENLHFQS | area with substrate ENLNFQS | area with substrate ENLMFQS | area with substrate ENLTFQS |
| --- | --- | --- | --- | --- | --- | --- | --- | --- | --- | --- | --- | --- | --- | --- | --- | --- | --- | --- | --- |
| V165Y | 0.0501 |  | 0.0431 | 0.059 |  | 0.0517 | 0.0551 | 0.0579 | 0.0293 |  | 0.0571 | 0.0515 |  |  | 0.0392 | 0.0501 | 0.0597 |  | 0.0478 |
| S182Y | 0.0501 | 0.0628 | 0.0637 | 0.0454 | 0.066 | 0.0504 | 0.0466 | 0.146 |  |  |  | 0.049 |  | 0.0564 |  | 0.0571 | 0.0499 | 0.0379 |  |
| S182I | 0.05 | 0.0613 | 0.0474 | 0.0651 | 0.0669 | 0.0753 | 0.054 |  | 0.0517 |  | 0.0614 | 0.0469 |  | 0.0731 |  | 0.0522 | 0.073 |  |  |
| S182P | 0.0637 | 0.0621 |  |  |  |  | 0.0906 | 0.0561 |  | 0.0728 |  | 0.0757 | 0.0728 | 0.0974 | 0.0554 | 0.0701 | 0.0376 |  | 0.0411 |
| N178D | 0.0883 | 0.0829 |  |  |  |  | 0.0694 |  |  |  |  | 0.057 |  | 0.0603 | 0.0268 |  |  | 0.0576 |  |
| N178E | 0.0566 | 0.0599 |  | 0.0451 | 0.0599 | 0.0471 | 0.0696 |  | 0.0461 |  |  | 0.0606 |  |  | 0.0539 |  | 0.0666 |  | 0.064 |
| N178K | 0.0519 |  | 0.0665 | 0.111 | 0.0458 | 0.0857 | 0.0816 | 0.0817 | 0.0685 |  | 0.0722 |  |  | 0.0605 |  |  | 0.0677 |  |  |
| N172G | 0.0645 | 0.0604 |  | 0.0939 |  | 0.0814 | 0.0655 |  | 0.0682 |  |  | 0.0691 |  |  |  | 0.0613 | 0.0547 |  |  |
| I167C | 0.0573 |  |  | 0.0818 |  | 0.0735 | 0.0788 | 0.0579 | 0.0749 | 0.0699 | 0.0647 | 0.0489 |  |  |  | 0.0773 | 0.0885 | 0.0688 |  |
| F173C | 0.0828 | 0.0649 |  | 0.0734 |  |  |  | 0.0585 | 0.0639 |  |  | 0.0513 |  |  | 0.0574 | 0.0431 |  | 0.0985 |  |
| F173Y | 0.0615 |  |  |  |  | 0.0658 |  |  | 0.0539 | 0.0552 | 0.0597 | 0.053 |  |  |  | 0.067 | 0.0917 |  |  |
| L156T | 0.0687 | 0.0374 | 0.0439 | 0.0738 |  | 0.0776 | 0.0713 | 0.0559 | 0.0596 | 0.0713 |  | 0.0734 | 0.0656 | 0.0638 | 0.0638 |  | 0.0614 | 0.0763 | 0.0667 |
| G153K | 0.0508 | 0.0303 |  | 0.06 |  |  |  | 0.053 |  |  |  |  | 0.0931 |  | 0.0626 | 0.0529 |  | 0.0421 |  |
| S154K | 0.0625 | 0.0922 |  | 0.0673 |  |  | 0.0745 | 0.077 | 0.0571 |  | 0.0672 | 0.0538 |  |  | 0.0787 | 0.0666 | 0.058 | 0.0402 |  |
| S154T | 0.0558 |  |  |  |  |  | 0.0781 | 0.084 |  |  | 0.0798 |  | 0.0795 |  |  | 0.0791 | 0.0547 |  |  |
| D161M | 0.0587 | 0.0396 |  | 0.0497 |  | 0.0401 | 0.0642 |  | 0.0513 |  | 0.0599 |  |  | 0.0533 |  | 0.0533 | 0.0601 |  | 0.0611 |
